The results in this text go back to PubChem BioAssay (NCI).

Molecules are shown by their SMILES.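 96-well plates; 48 h exposure; 5 concentrations. Endpoints by linear interpolation between flanking doses. Not reached: highest tested concentration assigned. At the GI50, growth is halved. TGI: total growth inhibition.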

For the test, the system named is NCI-H322M lung. Briefly: DTP human tumour cell line panel, 48 h.

In the case of `CC(Nc1c(C#N)cnc2ccc(-c3cnc(N)nc3)cc12)c1ccccc1` (configuration not stated), the GI50 was 1.18 µM and the TGI was determined as 7.52 µM.
